{
  "source": "ChEMBL document CHEMBL4888484",
  "about": "“Replenishing the malaria drug discovery pipeline: Screening and hit evaluation of the MMV Hit Generation Library 1 (HGL1) against asexual blood stage Plasmodium falciparum ,using a nano luciferase reporter read-out” (2022)",
  "note": "In all, about 150,000 compounds went through this assay and about 540 (0.36%) showed an effect of 50% or more. Some of the results follow.",
  "data": [
    {"system": "Plasmodium falciparum", "experiment": "Primary screen in NF54 nanoGlo assay, in single point, at 2uM, 72h; a lower Z score goes with more inhibition", "format": "functional, Erythrocyte", "conditions": "timepoint 72 hour", "units": {"% Inhibition": "%"}, "values": [
      {"smiles": "COC(=O)[C@H](C(=O)NCc1ccc(Cl)cc1)C1CCCCCC1", "% Inhibition": -6, "Z score": 0.86},
      {"smiles": "COc1cccc(C(C)NC(C)C(=O)N2CCC[C@@H]2CO)c1", "note": "(stereo partly drawn)", "% Inhibition": -7, "Z score": 0.96},
      {"smiles": "COc1ccc(Cl)cc1C(C)(C)NC(=O)c1ccns1", "% Inhibition": 6, "Z score": -0.91},
      {"smiles": "COc1ccc(OC)c(C2=NS(=O)(=O)N(C)C(C(=O)N3CCN(c4ccccc4)CC3)=C2)c1", "% Inhibition": -10, "Z score": 1.88},
      {"smiles": "COCCN(Cc1cc(C)cc(C)c1)S(=O)(=O)N(C)C", "% Inhibition": 1, "Z score": -0.11},
      {"smiles": "CC(C)c1nn(C)cc1-c1cn(C)nc1C#N", "% Inhibition": -9, "Z score": 1.11},
      {"smiles": "FC(F)(F)C1=CCN(c2cc(N3CCCC3)ncn2)CC1", "% Inhibition": -19, "Z score": 2.22},
      {"smiles": "CC(C)c1ocnc1C(=O)N1CCC2(CCCCC2)C1", "% Inhibition": 4, "Z score": -0.72},
      {"smiles": "CC(=O)N(C)c1cccc(NS(=O)(=O)C[C@H](C)c2ccccc2)c1", "% Inhibition": 12, "Z score": -1.79},
      {"smiles": "CCCCNC(=O)CN1C=C(c2nc(C)no2)C(C)=NS1(=O)=O", "% Inhibition": -9, "Z score": 1.1},
      {"smiles": "CN(CC(=O)Nc1ccn(C)n1)Cc1cscn1", "% Inhibition": -8, "Z score": 0.93},
      {"smiles": "C[C@@H](CN1CCOCC1)NC(=O)c1cc(C2CC2)[nH]n1", "% Inhibition": -6, "Z score": 1.21},
      {"smiles": "CCN(CCC(F)(F)F)C(=O)c1ccc(N(C)C)cc1F", "% Inhibition": -12, "Z score": 1.6},
      {"smiles": "CCC[C@]1(C(=O)O)CCCN(C(=O)CCc2ccncc2)C1", "% Inhibition": 4, "Z score": -0.67},
      {"smiles": "O=C(Cn1ccc(-c2ccccc2)nc1=O)N1CCCCCC1", "% Inhibition": -16, "Z score": 1.97},
      {"smiles": "NC(=O)CCn1ccc(Nc2ncc(Br)cn2)n1", "% Inhibition": -8, "Z score": 0.81},
      {"smiles": "O=C1OC2CC1N(C(=O)c1cc(Cl)ccc1Cl)C2", "note": "(stereo not drawn)", "% Inhibition": -9, "Z score": 1.34},
      {"smiles": "O=C1NC(c2ccc(-c3ccccc3Cl)o2)C(C(=O)c2ccccc2)C(O)(C(F)(F)F)N1", "note": "(stereo not drawn)", "% Inhibition": 0, "Z score": -0.08},
      {"smiles": "CN(CC(F)(F)F)C(=O)CN1CC[S@+]([O-])C(C)(C)C1", "% Inhibition": -3, "Z score": 0.31},
      {"smiles": "O=C(Nc1cn[nH]c1)N(CC1(O)CCCC1)CC1(O)CCCC1", "% Inhibition": -9, "Z score": 1.88},
      {"smiles": "Cc1c(C(=O)NCC(C)(C)N2CCOCC2)cnn1-c1ncc2c(n1)-c1ccccc1CCC2", "% Inhibition": -5, "Z score": 1},
      {"smiles": "O=C(NC[C@H]1CCCO1)c1coc(CN(Cc2ccc(F)cc2)Cc2ccccc2Cl)n1", "% Inhibition": -13, "Z score": 1.61},
      {"smiles": "CCCc1[nH]ccc1C(=O)NC[C@H]1CCCn2ccnc21", "% Inhibition": -7, "Z score": 1.29},
      {"smiles": "O=c1nc(CN(c2ccccc2)C2Cc3ccccc3C2)[nH][nH]1", "% Inhibition": -11, "Z score": 1.48},
      {"smiles": "O=C(CC[C@H]1CC[C@@H](C(F)(F)F)O1)N[C@H]1CCC[C@H]1C(=O)O", "% Inhibition": -4, "Z score": 0.64},
      {"smiles": "Cc1cc(C(=O)N2CCc3nocc3C2)c(=O)n(C)c1C", "% Inhibition": -4, "Z score": 0.71},
      {"smiles": "N#Cc1cccc(CN2Cc3nc[nH]c3C[C@H]2c2nc(-c3ccc4ccccc4c3)no2)c1", "% Inhibition": -6, "Z score": 0.87},
      {"smiles": "O=C(Nc1ccccc1N1CCCC1)c1cccc[n+]1[O-]", "% Inhibition": -14, "Z score": 1.47},
      {"smiles": "CCOC(=O)[C@H]1CCCN(CC(=O)Nc2ccc3c(c2)OCO3)C1", "% Inhibition": 3, "Z score": -0.42},
      {"smiles": "COc1cccc(C(=O)NC[C@H](C)N2CCc3ccccc32)c1OC(F)F", "% Inhibition": -4, "Z score": 0.66},
      {"smiles": "CCN1C(=O)N(c2nnc(C)s2)C(=O)[C@@H]1Cc1ccccc1", "% Inhibition": -7, "Z score": 0.98},
      {"smiles": "COc1ccc2c(-c3ccccc3)c(C(=O)Nc3ccc(F)cc3)oc2c1", "% Inhibition": 5, "Z score": -0.91},
      {"smiles": "Oc1cc(CN2CCCCC2)nc(C2CC2)n1", "% Inhibition": -18, "Z score": 3.38},
      {"smiles": "COC(=O)c1ncn(C[C@@H](O)Cc2ccccc2C(F)(F)F)n1", "% Inhibition": -12, "Z score": 1.05},
      {"smiles": "CC(C)CN1Cc2cc(NS(=O)(=O)c3ccccc3)ccc2O[C@@H](C)C1=O", "% Inhibition": 0, "Z score": -0.04},
      {"smiles": "CNc1snc(C)c1C(=O)N1CC[C@](C)(O)C1", "% Inhibition": -29, "Z score": 3.44},
      {"smiles": "Cc1ccc(NC(=O)NC[C@H](c2cccnc2)c2c[nH]c3ccccc23)c(C)c1", "% Inhibition": -9, "Z score": 1.73},
      {"smiles": "O=C(Nc1ccccc1)c1nnc(N2CCC(Cc3ccccc3)CC2)c2ccccc12", "% Inhibition": -6, "Z score": 0.54},
      {"smiles": "O[C@H]1CCN(c2ccnc(N3CCCn4cncc4C3)n2)C1", "% Inhibition": 2, "Z score": -0.27},
      {"smiles": "COc1cccc(CO[C@@H](CN2CCN(S(=O)(=O)c3ccc(OC)c(OC)c3)CC2)c2ccc(Cl)cc2)c1", "% Inhibition": -9, "Z score": 1.26},
      {"smiles": "CN(C)c1nc(CCC2CCN(C(=O)Cn3cccn3)CC2)no1", "% Inhibition": 0, "Z score": 0},
      {"smiles": "CS(=O)(=O)Nc1ccc(-c2cc(F)c3c(c2)C[C@H](CN)O3)cn1", "% Inhibition": -13, "Z score": 2.62},
      {"smiles": "Cc1ccsc1C(=O)NCCNc1ncccn1", "% Inhibition": -7, "Z score": 0.93},
      {"smiles": "N#Cc1cnn(CCN2CCC[C@H](c3cc(C(F)(F)F)[nH]n3)C2)c1", "% Inhibition": -14, "Z score": 1.39},
      {"smiles": "CC(=O)N1CCC[C@@](NCCN2CCCCC2)(c2nnnn2CCC(C)C)C1", "% Inhibition": 2, "Z score": -0.2},
      {"smiles": "CN(C)c1ccc(CN2CC[C@H](c3nnc(Cc4ccccc4)o3)C2)cc1", "% Inhibition": 25, "Z score": -2.8},
      {"smiles": "CCCn1c(=O)c2sc(N3CCC(C)CC3)nc2n(CC(=O)Nc2cccc(F)c2)c1=O", "% Inhibition": -9, "Z score": 1.56},
      {"smiles": "COc1ccc(-c2cc(OC(F)(F)F)ccc2O)nn1", "% Inhibition": -8, "Z score": 1.53},
      {"smiles": "CC1(C)COCCN1Cc1csc(-c2ncccn2)n1", "% Inhibition": 10, "Z score": -1.53},
      {"smiles": "O=C(c1ccoc1)N1CCC(N2C(=O)CNC2=O)CC1", "% Inhibition": -6, "Z score": 1.09},
      {"smiles": "CC(C)NC(=O)c1nnn2c1CO[C@H](c1ccccc1)C2", "% Inhibition": 0, "Z score": 0.05},
      {"smiles": "O=c1[nH]c(N2CCCC2)nc2nccc(-c3ccc(F)cc3)c12", "% Inhibition": -14, "Z score": 2.03},
      {"smiles": "Nc1nc(-c2cccs2)c2nc[nH]c2n1", "% Inhibition": -2, "Z score": 0.3},
      {"smiles": "Cn1ccnc1C[C@H](NC(=O)N1CC(C)(C)C1(C)C)c1ccccc1", "% Inhibition": -9, "Z score": 0.92}
    ]}
  ]
}
